The source of these data is paper PMC4336329 (PLoS ONE, 2015).

In all, about 310,000 compounds went through this assay and about 14,000 (4.5%) showed an effect of 50% or more. Effects have a minus sign here. The list shows a part of the results.
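Further: peak tail current of the secondary pulse compared with the same well before compound.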

This assay deals with human ether-à-go-go-related gene (hERG) potassium channel (human, UniProt Q12809). The assay is described as follows: primary screen, population patch clamp on CHO cells stably expressing hERG.
Sequence of human ether-à-go-go-related gene (hERG) potassium channel (Q12809 whole entry, looked up): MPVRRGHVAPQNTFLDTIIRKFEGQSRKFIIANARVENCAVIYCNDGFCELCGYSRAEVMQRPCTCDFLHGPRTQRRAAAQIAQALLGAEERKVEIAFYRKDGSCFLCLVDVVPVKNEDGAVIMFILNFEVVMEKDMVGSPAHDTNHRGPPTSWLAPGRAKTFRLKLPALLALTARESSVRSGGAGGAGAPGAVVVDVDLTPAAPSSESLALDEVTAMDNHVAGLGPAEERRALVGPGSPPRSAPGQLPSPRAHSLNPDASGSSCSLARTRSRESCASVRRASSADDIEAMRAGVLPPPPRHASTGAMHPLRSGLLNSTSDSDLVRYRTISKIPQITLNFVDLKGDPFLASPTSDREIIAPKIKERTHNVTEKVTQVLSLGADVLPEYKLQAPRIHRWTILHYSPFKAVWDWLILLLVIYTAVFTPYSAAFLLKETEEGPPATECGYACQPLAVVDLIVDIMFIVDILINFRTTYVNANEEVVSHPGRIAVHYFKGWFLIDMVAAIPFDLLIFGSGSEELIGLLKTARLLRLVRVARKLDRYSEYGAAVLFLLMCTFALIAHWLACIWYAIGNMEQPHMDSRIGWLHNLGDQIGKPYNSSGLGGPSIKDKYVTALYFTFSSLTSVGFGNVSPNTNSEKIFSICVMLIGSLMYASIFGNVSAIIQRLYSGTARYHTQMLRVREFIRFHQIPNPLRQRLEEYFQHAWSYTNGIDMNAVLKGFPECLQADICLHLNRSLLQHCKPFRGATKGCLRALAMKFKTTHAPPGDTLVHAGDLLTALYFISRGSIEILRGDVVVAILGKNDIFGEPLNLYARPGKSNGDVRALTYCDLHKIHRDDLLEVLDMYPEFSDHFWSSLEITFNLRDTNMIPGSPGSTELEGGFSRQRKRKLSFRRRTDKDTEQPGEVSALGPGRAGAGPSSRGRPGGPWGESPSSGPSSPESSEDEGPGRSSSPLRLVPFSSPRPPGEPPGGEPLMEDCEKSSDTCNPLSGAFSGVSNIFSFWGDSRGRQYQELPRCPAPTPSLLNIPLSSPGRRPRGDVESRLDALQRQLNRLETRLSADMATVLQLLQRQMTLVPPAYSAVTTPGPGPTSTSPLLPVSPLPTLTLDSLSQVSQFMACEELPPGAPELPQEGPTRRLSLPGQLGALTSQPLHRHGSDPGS
Take `O=C(NC1CCCCC1)C(c1ccncc1)N(C(=O)c1csnn1)c1ccccc1` (stereo not drawn): the “hERG current change (%, negative = inhibition) at 10uM” value worked out at 11.9%.
The figure for `CCOc1ccc(C(=O)NC(=S)NC2CCCC2)cc1[N+](=O)[O-]` is -0.762%; for `CCN(CC)CC(=O)Nc1cc(N(C)C)nc2ccccc12.O=C(O)C(=O)O` it is -35.3%.
For the molecule `Cc1ccc(NC(=O)COC(=O)CCc2c[nH]c3ccccc23)cc1[N+](=O)[O-]`, the “hERG current change (%, negative = inhibition) at 10uM” value turned out to be 10.4%.
The figure for `CCCC(C)NC1=NCCCCC1` (stereo not drawn) is -0.474%; for `COC(=O)c1c(NC(=O)C2C3C=CC(CC3)C2C(=O)O)sc(C)c1C` (stereo not drawn) it is -2.36%.
The figure for `N=C1/C(=C/c2ccc(Br)o2)C(=O)N=C2SC(CC(=O)N3CCCC3)=NN12` is 6.8%; for `COc1ccc(NC(=O)CN(C)C(=O)c2cn(-c3ccccc3)nc2-c2ccc(F)cc2)cc1` it is -7.18%; for `COc1ccc2c(c1)CCc1c(C(=O)N3CCCCCC3)noc1-2` it is -15.8%.
The figure for `CCOC(=O)C1=C(CS(=O)(=O)c2ccc(C)cc2)NC(=O)NC1c1ccc(O)c(OC)c1` (stereo not drawn) is 19.6%; for `O=C(COC(=O)/C=C/c1ccc(Cl)c(Cl)c1)NC1CCCC1` it is 20%.
On to `CCN(c1ccccc1)S(=O)(=O)c1cc(C(=O)OC(C)C(=O)Nc2ccc3c(c2)OCCO3)ccc1C` (stereo not drawn), for which the “hERG current change (%, negative = inhibition) at 10uM” value came to 14.1%.
As for `Cc1cc(C)n2nc(C(=O)OCCOc3ccc(F)cc3)nc2n1`, the “hERG current change (%, negative = inhibition) at 10uM” value was -12.3%.
The figure for `CC(NC(=O)COC(=O)Cn1cnc2ccccc2c1=O)C1CC2CCC1C2` (stereo not drawn) is 4.01%.
The figure for `COc1ccc(-c2noc(CCC(=O)NCC3CCCO3)n2)cc1OC` (stereo not drawn) is -10%; for `O=C(O)CN1C(=O)C(=O)N(Cc2ccccc2F)C1=O` it is 14.4%.
Turning to `Cc1ccc(CN2CCN(CC(=O)NC(C)CCc3ccccc3)C2=O)cc1` (stereo not drawn), the “hERG current change (%, negative = inhibition) at 10uM” value was -20.6%.
The figure for `CNC(=O)c1sc(=S)n(-c2ccc(OC)cc2)c1N` is 13.7%; for `O=C(NCCN1CCN(c2ccccc2)CC1)c1ccc(NC(=O)C2CCCO2)cc1` (stereo not drawn) it is 11.7%.
On to `COc1cccc(CNc2ccc(S(=O)(=O)N3CCN(C)CC3)cn2)c1`, for which the “hERG current change (%, negative = inhibition) at 10uM” value is reported as -7.97%.
The figure for `COc1ccc(NC(=O)NNC(=O)COc2ccc3ccccc3c2)cc1` is 13.3%; for `Cc1cc2c(c(=O)n1CCN(C)C)C(c1ccccc1Br)C(C#N)=C(N)O2` (stereo not drawn) it is -26.1%.
The figure for `CCn1cc(S(=O)(=O)CC(=O)Nc2cc(C)on2)c2ccccc21` is 11.8%; for `O=C(Nc1ccccc1C(=O)N1CCCCC1)c1ccc(Cl)cc1Cl` it is 0.654%; for `CCO[C@H]1OC(C(=O)NC2CC2)=C[C@@H](C)[C@@H]1CCCO` it is 8.2%.
For the molecule `O=C(O)CC1CCS(=O)(=O)C1` (stereo not drawn), the “hERG current change (%, negative = inhibition) at 10uM” value stood at 10.2%.
For the molecule `C=CCSc1nc(O)c(C2OC(=O)c3c2ccc(OC)c3OC)c(=O)n1-c1ccccc1` (stereo not drawn), the “hERG current change (%, negative = inhibition) at 10uM” value was -3.16%.
For the molecule `COC(=O)c1ccc(C(NC(=O)OCc2ccccc2)/C(C)=C/[C@@H](C)C(=O)NCc2ccc(-c3ccccc3)cc2)cc1` (stereo partly drawn), the “hERG current change (%, negative = inhibition) at 10uM” value is -0.583%.
The figure for `Cc1csc(NC(=O)C(CC(C)C)NS(=O)(=O)c2ccc3c(c2)oc(=O)n3C)n1` (stereo not drawn) is 4.89%; for `Cc1cc(C)nc(SCc2cc(=O)c(OC(=O)c3cc([N+](=O)[O-])ccc3Cl)co2)n1` it is -2.51%; for `CC(=O)Nc1cccc(NC(=O)CSc2nnc(NC(=O)C3CC3)s2)c1` it is 22.6%.
For `Cc1cc(NC(=O)CSc2nnc(-c3c[nH]c4ccccc34)n2C)no1`, the “hERG current change (%, negative = inhibition) at 10uM” value is 16.7%.
On to `c1ccc(CCN2CCC(N3CCN(c4ccccc4)CC3)CC2)cc1`, for which the “hERG current change (%, negative = inhibition) at 10uM” value is listed as -66.4%.
`COc1ccc(CN2CCCC(C(=O)c3ccc(Cl)cc3)C2)cc1Cn1cccn1` (stereo not drawn): the “hERG current change (%, negative = inhibition) at 10uM” value is -83.9%.
For `CCN1C(=O)[C@H]2[C@@H](c3ccc(C)cc3)N3C(=O)N(c4ccccc4)C(=O)[C@@]3(C)[C@H]2C1=O`, the “hERG current change (%, negative = inhibition) at 10uM” value is recorded as -0.779%.
The figure for `CCN(CC)C(=O)c1sc2nc(-c3cccs3)cc(-c3cccs3)c2c1N` is -8.14%; for `Cn1c(Cc2ccccc2)nnc1SCC(=O)NC1CCCC1` it is -5.37%.
The figure for `CC(=O)Nc1ccc(C(=O)N/N=C/c2cccnc2)cc1` is 24.6%.
Turning to `COc1cccc(-c2nnc(NC(=O)C(C)C)o2)c1`, the “hERG current change (%, negative = inhibition) at 10uM” value was found to be 4.47%.
For `CCN1/C(=C2\SC(=S)N(Cc3ccccc3)C2=O)Sc2ccccc21`, the “hERG current change (%, negative = inhibition) at 10uM” value worked out at 13.6%.
For the molecule `Cc1ccc(C)c(OCCC(=O)OCC(=O)Nc2ccc(N3CCOCC3)cc2)c1`, the “hERG current change (%, negative = inhibition) at 10uM” value came to 19.6%.
The figure for `Cn1c(OCc2cccnc2)nc2c1c(=O)n(Cc1ccc(F)cc1)c(=O)n2C` is -51.9%; for `COc1ccccc1CCC(=O)N1CCN(S(=O)(=O)c2cc(C(F)(F)F)ccc2Cl)CC1` it is -19.1%; for `CC(/C=C/c1ccccc1)=N/NC(=O)c1cc([N+](=O)[O-])cc([N+](=O)[O-])c1` it is 8%.
The figure for `CCC1NC(=S)NC(C)=C1C(=O)c1ccccc1` (stereo not drawn) is -5.77%; for `CCOc1ccc(CN2C(=O)c3ccccc3C2=O)cc1C(=O)O` it is 15.7%.
The figure for `COc1ccccc1CN1CCNC(=O)C1CC(=O)NCCCN1CCCC1=O` (stereo not drawn) is -11.8%; for `C#CCn1c(=NC(=O)CN2C(=O)CCC2=O)sc2cccc(C)c21` it is -30.6%.
Regarding `Cc1c(NC(=O)c2cccc(NC(=O)Cc3ccc(Cl)cc3)c2)c(=O)n(-c2ccccc2)n1C`, the “hERG current change (%, negative = inhibition) at 10uM” value is given as -3.02%.
The figure for `CN(C)CCCNc1ccc(-c2nn(C)c(=O)c3ccccc23)cc1[N+](=O)[O-]` is -16%.
The figure for `CCN1CCN(Cc2ccc(NC(=O)Nc3ccc(SC)cc3)cc2)CC1` is -44.5%; for `CSc1nc(N)c(NC(=O)c2ccc(Br)o2)c(=O)[nH]1` it is 21.8%.
The figure for `CN(c1ccccc1)S(=O)(=O)c1ccc(C(=O)NCC2CCCO2)cc1` (stereo not drawn) is -8.7%; for `CCc1nc(NCc2cccnc2)c2oc3ccccc3c2n1.Cl` it is -39.6%.
